Measurements reported in PubChem BioAssay AID686971 (National Center for Advancing Translational Sciences (NCATS), 2013).
The whole screen tested about 360,000 compounds, of which about 7,500 (2.1%) were called active. Inconclusive results, whose numbers are uncertain, are shown with a selection of clear calls. Calls come from the whole dose curve; as a rule, active = well fitted cell-killing curve with a large enough effect; inconclusive = small, poorly fitted or top-dose-only effect, or effect the other way, or another doubt; inactive = no such curve, though single readings can be large or run the other way. No potency is given beside an inconclusive call; the fits are too rough.

assay: qHTS for induction of synthetic lethality in tumor cells producing 2HG: qHTS for the HT-1080-IDH1KD cell line; settings: HT-1080 IDH1 knockdown viability, ATP luminescence, 48 h; activity, negative = toxicity: at 46.1 µM (top of the series) unless noted;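 for activity, negative = toxicity: 0% = DMSO wells and -100% = cell-free medium wells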
Method in brief: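 IDH1KD HT-1080 cells, 750/well, RPMI + 5% FBS; compound pinned after 2 h settling; 48 h, 37 °C; CellTiter-Glo luminescence; % activity normalised to DMSO and no-cell wells; curves fitted, classed by r2 and efficacy.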
Potency is the fitted concentration of half-maximal effect; tags give direction and shape of the fitted curve.

Question: With `Cc1cc(N2CCN(Cc3nc(-c4ccc(Cl)cc4)oc3C)CC2)cc(C)n1` as the compound, how does the Potency read?
Answer: active: 20.6 µM

Question: Which “activity, negative = toxicity” value does the source give for `O=C(CNC(=O)c1cc(Cl)cc([N+](=O)[O-])c1)OCC(=O)N1CCCCC1` here?
Answer: inactive: -7.62%

Question: For `O=C1CCCC2=C1C(c1ccc(Cl)cc1)C1C(=O)c3ccccc3C1=N2` (stereo not given), which Potency is on record?
Answer: inconclusive [cytotoxic, single point]

Question: Which Potency does the source give for `CC(O)(c1cccc(F)c1)c1nc(-c2cccc(F)c2)cs1` (stereo not given) here?
Answer: inconclusive [cytotoxic, single point]

Question: With `CC1=C(C(=O)NC2CCCc3c2cnn3-c2cccc(C)c2C)OCCO1` (stereo not given) as the compound, how does the Potency read?
Answer: inconclusive [cytotoxic, partial curve]

Question: Which “activity, negative = toxicity” value does the source give for `CCOC(=O)C1=C[C@@H](C(C)C)N(S(=O)(=O)c2ccc(C)cc2)[C@H]1c1ccccc1F` here?
Answer: inactive: -19.1%

Question: With `CCc1cc2c(=O)n(-c3ccc(C)cc3)cnc2s1` as the compound, how does the “activity, negative = toxicity” value read?
Answer: inactive: 6.99%

Question: For `CC1=C(C(=O)OCc2ccc3c(c2)OCO3)C(c2ccccc2OCc2ccccc2)NC(=O)N1` (stereo not given), which Potency is on record?
Answer: inconclusive [cytotoxic, single point]

Question: For `Cc1cccc(CN2CCC(C(=O)Nc3cccc(-c4cccc(F)c4)c3)CC2)n1`, which Potency is on record?
Answer: inconclusive [cytotoxic, single point]

Question: Which Potency does the source give for `CC(C)Nc1nc(NCCOc2ccccc2Cl)c2sccc2n1` here?
Answer: active: 16.4 µM

Question: With `Cc1cc(C)n2nc(SCc3ncc(-c4ccccc4)o3)nc2n1` as the compound, how does the “activity, negative = toxicity” value read?
Answer: inactive: -2.78%

Question: With `CCCN1CCC(NCc2cn(C)nc2-c2ccc(Oc3ccccc3)cc2)CC1` as the compound, how does the Potency read?
Answer: inconclusive [cytotoxic, partial curve]

Question: For `COc1ccc(/C=N/NC(=O)COc2ccc(Cl)cc2Cl)cc1Cn1nc(C)cc1C`, which Potency is on record?
Answer: inconclusive [cytotoxic, single point]

Question: Which “activity, negative = toxicity” value does the source give for `COc1ccccc1CN1CCN(Cc2ccc3ccccc3c2)CC1` here?
Answer: inactive: -8.18%

Question: For `CCc1c(C(=O)NNC(=S)NCc2ccccc2)csc1C`, which Potency is on record?
Answer: inconclusive [cytotoxic, partial curve]

Question: For `COC(=O)c1c(NC(=O)c2ccc(C)o2)sc2c1CCCCC2`, which “activity, negative = toxicity” value is on record?
Answer: inactive: -7.46%

Question: For `CN(C(=O)CSc1nc2cc([N+](=O)[O-])ccc2n1-c1ccc(F)cc1)C1CCS(=O)(=O)C1` (stereo not given), which Potency is on record?
Answer: inconclusive [cytotoxic, single point]

Question: Which “activity, negative = toxicity” value does the source give for `CC(C)(C)OC(=O)C[C@@H]1C/C=C\C[C@@H](CC(=O)N(CCO)Cc2ccccc2)C(=O)N[C@H](Cc2c[nH]c3ccccc23)COC1=O` here?
Answer: inactive: -8.96%

Question: For `CC1=C(C(=O)Nc2cccc(C)n2)C(c2ccc3c(c2)OCO3)C2=C(CC(c3ccco3)CC2=O)N1` (stereo not given), which “activity, negative = toxicity” value is on record?
Answer: inactive: -0.732%

Question: Which Potency does the source give for `CN(CC1CCCO1)S(=O)(=O)c1ccc(C(=O)Nc2ccc([N+](=O)[O-])cc2)cc1` (stereo not given) here?
Answer: inconclusive [cytotoxic, single point]

Question: For `COC(=O)[C@@]12C[C@@H](CC(=O)NCCc3ccccc3OC)C(=O)N(Cc3ccco3)C1=CCC(C)(C)C2`, which Potency is on record?
Answer: inconclusive [cytotoxic, single point]

Question: For `CCCCCCCCCCS(=O)(=O)N/N=C/c1ccc(O)cc1`, which Potency is on record?
Answer: inconclusive [cytotoxic, single point]

Question: Which Potency does the source give for `Fc1ccc(-n2cc(-c3ccccc3)[n+]3c2SCC3)cc1` here?
Answer: inconclusive [cytotoxic, single point]

Question: With `Cc1ccc(NS(=O)(=O)c2cc(NC(=O)c3cc(=O)[nH]c(=O)[nH]3)ccc2Cl)c(C)c1` as the compound, how does the Potency read?
Answer: inconclusive [cytotoxic, single point]

Question: For `Cc1ccc(CNC(=O)c2ccccc2NC(=O)CN2CC(C)OC(C)C2)cc1` (stereo not given), which “activity, negative = toxicity” value is on record?
Answer: inactive: -4.73%

Question: With `O=C(Nc1nc2ccc(F)cc2s1)C1=COCCO1` as the compound, how does the Potency read?
Answer: inconclusive [cytotoxic, single point]

Question: With `Fc1cc(Br)ccc1NC(=S)NCCc1ccccc1` as the compound, how does the Potency read?
Answer: inconclusive [cytotoxic, single point]

Question: Which Potency does the source give for `Cc1cccc(NC(=S)Nc2ccc(Cl)c(Cl)c2)c1` here?
Answer: inconclusive [cytotoxic, single point]

Question: With `CCOC(=O)c1c(-c2ccc(C)o2)csc1NC(=O)CSc1nnc(C)s1` as the compound, how does the Potency read?
Answer: inconclusive [cytotoxic, single point]

Question: For `COc1ccc(/C=C/C(=O)c2cc(F)ccc2OC(=O)c2ccccc2OC)cc1OC`, which Potency is on record?
Answer: active: 1.3 µM

Question: For `CCN(CC)c1ccc(N=Cc2ccc([N+](=O)[O-])o2)cc1`, which Potency is on record?
Answer: inconclusive [cytotoxic, single point]

Question: Which “activity, negative = toxicity” value does the source give for `COc1ccc(CCN2C(=O)CSCC2(C)C(=O)Nc2ccc3c(c2)OCCO3)cc1OC` (stereo not given) here?
Answer: inactive: 0.491%

Question: Which Potency does the source give for `N#Cc1ccc(Nc2nc(-c3ccccc3)c(C(=O)c3ccccc3)s2)cc1` here?
Answer: inconclusive [cytotoxic, single point]

Question: For `CCc1nc(N2CCN(C(=O)c3ccco3)CC2)c2oc3ccccc3c2n1`, which Potency is on record?
Answer: inconclusive [cytotoxic, single point]

Question: With `Cc1ccc(Cl)c(OCC(=O)Nc2cccnc2)c1` as the compound, how does the Potency read?
Answer: inconclusive [rising, partial curve, poor fit]

Question: For `Cc1ccc2nc(-c3ccc(NC(=O)CSc4nc(N)cc(=O)[nH]4)cc3)sc2c1`, which Potency is on record?
Answer: active: 11.6 µM

Question: With `Cc1sc2nc3ccc(N4CCCC4)nn3c(=O)c2c1C` as the compound, how does the “activity, negative = toxicity” value read?
Answer: inactive: 0.63%

Question: With `COc1ccc(OC)c(NC(=O)CCN2CCN(c3ccccc3)CC2)c1` as the compound, how does the Potency read?
Answer: inconclusive [rising, partial curve, poor fit]

Question: For `CCOC(=O)c1sc(NC(=O)c2cccc(S(=O)(=O)N(CC)CC)c2)cc1C`, which activity, negative = toxicity is on record?
Answer: inconclusive: -8.41% [cytotoxic]

Question: For `CCN(CC)/C(=N\S(=O)(=O)c1ccccc1C)c1ccccc1`, which “activity, negative = toxicity” value is on record?
Answer: inactive: 1.26%

Question: Which Potency does the source give for `Cc1cc(C(=O)CSc2nc3ccc(Cl)cc3[nH]2)c(C)n1CC1CCCO1` (stereo not given) here?
Answer: inconclusive [cytotoxic, partial curve]

Question: Which Potency does the source give for `CCOc1ccc2[nH]c(=O)c(CN(CCN3CCCC3)C(=S)Nc3ccccc3OC)cc2c1` here?
Answer: inconclusive [cytotoxic, single point]

Question: For `CCC(C)(C)n1nnnc1C(c1cc2ccc(OC)cc2[nH]c1=O)N1CCCCC1` (stereo not given), which “activity, negative = toxicity” value is on record?
Answer: inactive: -0.186%

Question: With `CCCCNc1c(-c2cccc(-c3cc(C(C)=O)cs3)c2)nc2ccc(C)cn12` as the compound, how does the Potency read?
Answer: inconclusive [cytotoxic, single point]

Question: For `COC(=O)c1cc2ccccc2c(-c2c(O)ccc3ccccc23)c1O`, which Potency is on record?
Answer: inconclusive [cytotoxic, single point]

Question: Which Potency does the source give for `CC(C)=CC(=O)Nc1ccc(Br)cc1` here?
Answer: inconclusive [cytotoxic, partial curve]

Question: With `CCOc1ccc2oc(C(=O)Nc3ccc(C)cn3)c(C)c2c1` as the compound, how does the “activity, negative = toxicity” value read?
Answer: inactive: 8.46%

Question: With `COC(=O)Cc1ccc(NC(=S)NCc2ccccc2OC)cc1` as the compound, how does the “activity, negative = toxicity” value read?
Answer: inactive: 16.1%

Question: Which “activity, negative = toxicity” value does the source give for `CCC(C)c1ccc(-c2cc(C(=O)OCC(=O)Nc3cc(C)on3)c3ccccc3n2)cc1` (stereo not given) here?
Answer: inactive: -22.9%

Question: Which Potency does the source give for `O=C(O)c1ccccc1-c1ccccc1C(=O)NNc1ccccc1` here?
Answer: inconclusive [cytotoxic, single point]

Question: For `Cc1oc(-c2ccccc2)nc1CS(=O)CC(=O)N1CCc2ccccc2C1` (stereo not given), which “activity, negative = toxicity” value is on record?
Answer: inactive: -4.02%

Question: Which Potency does the source give for `CCn1c(SCC(=O)N/N=C/C=C\c2ccccc2[N+](=O)[O-])nnc1-c1ccccc1` here?
Answer: inconclusive [cytotoxic, partial curve]

Question: Which Potency does the source give for `Fc1ccc(-c2cc3nc4c(c(N5CCOCC5)n3n2)CCCC4)cc1` here?
Answer: inconclusive [cytotoxic, single point]

Question: With `CC1=CC(C)(C)N(C(=O)CSc2nnc(-c3ccccc3)o2)c2ccc(C)cc21` as the compound, how does the Potency read?
Answer: inconclusive [cytotoxic, single point]

Question: Which “activity, negative = toxicity” value does the source give for `CN(/N=C/c1ccncc1)c1cnc2ccccc2n1` here?
Answer: inactive: -21.1%

Question: Which “activity, negative = toxicity” value does the source give for `Cc1cc(-c2ccccc2C(=O)Nc2ccccc2O)on1` here?
Answer: inactive: -0.269%

Question: With `CCOc1ccc(N/C=C/C(=O)c2cc(OC)c(OC)c(OC)c2)cc1` as the compound, how does the Potency read?
Answer: inconclusive [cytotoxic, single point]

Question: With `O=C(OCCN(C1=NS(=O)(=O)c2ccccc21)c1ccc(Cl)cc1)c1ccco1` as the compound, how does the “activity, negative = toxicity” value read?
Answer: inactive: 2.97%

Question: Which Potency does the source give for `Cc1cc(C)cc(OCCCOc2cccc3cccnc23)c1` here?
Answer: inconclusive [cytotoxic, single point]

Question: With `O=[N+]([O-])c1ccc(N2CCN(CCOc3nonc3-c3ccccc3)CC2)c(Cl)c1` as the compound, how does the “activity, negative = toxicity” value read?
Answer: inactive: -14.1%

Question: For `CC(SCc1ccccc1)C(=O)N/N=C/c1ccc(OCC(=O)NCc2ccco2)cc1` (stereo not given), which Potency is on record?
Answer: inconclusive [cytotoxic, single point]

Question: Which Potency does the source give for `CNc1nc2c(C)cccn2c(=O)c1C=Nc1ccc(OC)cc1` here?
Answer: inconclusive [cytotoxic, single point]

Question: For `COC(=O)COc1cccc2c(=O)n(CC(=O)NCc3ccccc3)ccc12`, which Potency is on record?
Answer: active: 2.31 µM

Question: Which Potency does the source give for `COc1ccc(CC2C(=O)NC(C)C(=O)N(C)C3Cc4ccc(cc4)Oc4cc(ccc4O)CC(C(=O)NC(C)C(=O)NC(C)C(=O)N2C)N(C)C3=O)cc1` (stereo not given) here?
Answer: active: 0.164 µM

Question: With `COc1ccc(CNC(=O)CCc2c(C)nc3cc(-c4ccccc4OC)nn3c2C)cc1` as the compound, how does the “activity, negative = toxicity” value read?
Answer: inactive: 0.359%

Question: For `CCc1ccc([C@@H]2CC(=O)[C@@H]3CN(S(=O)(=O)c4ccccc4C)[C@H](c4ccc(Cl)cc4)C[C@@H]3N2S(=O)(=O)c2ccc(C)cc2)cc1`, which Potency is on record?
Answer: inconclusive [cytotoxic, single point]

Question: With `O=C(CSc1nnc(-c2cccnc2)n1-c1ccccc1)Nc1ccc2c(c1)OCO2` as the compound, how does the Potency read?
Answer: inconclusive [cytotoxic, single point]

Question: With `COc1ccccc1C(=O)NCCCNC(=O)c1cccnc1` as the compound, how does the Potency read?
Answer: inconclusive [cytotoxic, single point]

Question: For `Cc1c(C(=O)NCCN2CCOCC2)oc2ccccc12`, which “activity, negative = toxicity” value is on record?
Answer: inactive: 14.4%

Question: For `COc1ccc(-c2cc3c(=O)n(CC(=O)NCc4cccnc4)ncn3n2)cc1`, which Potency is on record?
Answer: inconclusive [cytotoxic, single point]
